In the supplement of paper PMC3334620:
Whole data set: some 33,000 sequences, median “E-score (-0.5 to 0.5)” near -0.016, cut for the highest 2% near 0.31. This is one part of the list.

The sequences below were run against Cst6 (UniProt P40535) (assay: PBM E-score (8-mer binding enrichment) (E-score (-0.5 to 0.5)); higher = stronger / more preferred TF binding; most listed sequences are background and not binding sites). Details: protein concentration: 200 nM; construct: GST-DNA-binding domain.
In short: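 Yeast transcription factors carrying a GST tag, as full-length proteins or DNA-binding domains, were produced by PURExpress in vitro transcription/translation. About 100-200 nM protein was applied to universal all-10-mer Agilent arrays, double-stranded by primer extension on fresh or once-stripped slides. Bound protein was detected with fluorescent anti-GST, and scans were normalised with masliner. The Universal PBM Analysis Suite gave each ungapped eight-base word, pooled with its reverse complement, an E-score, a modified Wilcoxon-Mann-Whitney statistic.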

| Sequence | PBM E-score |
| --- | --- |
| CACCAATC | 0.0604 |
| ACGAGTCT | -0.282 |
| CTGGCAGA | -0.0915 |
| AGAGCGCG | 0.0175 |
| ATCTCAAC | 0.194 |
| CCCTATTA | 0.0881 |
| ACAGGGTG | -0.311 |
| CAGGCCAA | -0.178 |
| CCAAAGCG | -0.0706 |
| ATATTGGG | -0.0314 |
| AGTTAACT | 0.17 |
| CATGTCAA | 0.161 |
| GAATCAGC | 0.0669 |
| AATGACCC | -0.0671 |
| CCCCTATA | -0.199 |
| AATACGCG | 0.0532 |
| TATCATCA | 0.341 |
| ACTCGATA | 0.0503 |
| CATCGAAA | 0.0768 |
| AATGTCGG | 0.099 |
| AACTATGG | -0.12 |
| GCTAGGCC | -0.214 |
| AGTATTAT | 0.0534 |
| AGAACTTC | -0.165 |
| CTATTTGA | 0.209 |

| Sequence | PBM E-score |
| --- | --- |
| GAAGATAC | 0.0689 |
| TAATGTCA | 0.356 |
| CCCACCCA | 0.132 |
| AACTAGGA | 5e-05 |
| AGGACAGG | -0.313 |
| CAAAAATG | 0.133 |
| AAAGGTTG | -0.17 |
| CCTGACGC | -0.0402 |
| CTATCACC | -0.283 |
| AGATCCCA | -0.103 |
| AGACGCTC | -0.306 |
| CTTCTTGA | 0.0097 |
| CTTTACAA | 0.0843 |
| AAATACGT | 0.251 |
| CTCTGCGA | 0.058 |
| CTCGTTAC | 0.0262 |
| TATGTCGA | 0.156 |
| AAGGCTCC | -0.273 |
| CCGACCCC | -0.233 |
| CTTGTCTA | 0.048 |
| AACGAACG | 0.0731 |
| AGATTGTC | -0.0488 |
| GGAGTCAA | -0.218 |
| ACCAGAGA | -0.0391 |
| GGCGAATA | -0.0715 |

| Sequence | PBM E-score |
| --- | --- |
| GCACTAAA | 0.162 |
| GTTAACGA | 0.001 |
| ACTGGACG | -0.142 |
| CAGCTGGA | -0.0466 |
| CGACGAGC | -0.276 |
| ACTGGGGC | -0.292 |
| CCTTAAGC | -0.263 |
| TCGGAGAA | -0.0708 |
| AGGACATG | -0.116 |
| TCGAGCAA | 0.119 |
| GGCTGACC | -0.314 |
| ATAGGCGA | -0.0483 |
| GATAACCA | -0.0596 |
| AACAATCG | 0.0521 |
| CGGTCTAC | -0.0943 |
| CGTTAGTA | 0.169 |
| AACTAGTG | -0.147 |
| CGTCCGAG | -0.117 |
| CAATCCTA | -0.117 |
| AGTCGGGG | -0.219 |
| AGACCTAG | -0.128 |
| CCCCTAGC | -0.391 |
| GGCACGCA | -0.0289 |
| ACAGTAAC | 0.12 |
| ACGCGGGG | 0.0909 |

| Sequence | PBM E-score |
| --- | --- |
| CACTGCTA | -0.0601 |
| CATCTACC | -0.0048 |
| ATAGTGCG | 0.074 |
| AACACGGA | 0.108 |
| ACTAAGTA | 0.0364 |
| AAGGGCGC | 0.0762 |
| CCGGCCAC | -0.225 |
| AGGTATGC | 0.111 |
| CAGCGTTA | 0.0435 |
| TAAATAAA | 0.289 |
| CGGACTTA | -0.255 |
| GACAGGTC | -0.271 |
| GCAGGCGA | -0.102 |
| ATGTAGAG | -0.0171 |
| ATCCATCG | -0.212 |
| CCCTCTAG | -0.245 |
| CACAATGA | 0.172 |
| CAAAATTG | 0.147 |
| AAGTCTGG | -0.109 |
| ATCATATG | 0.254 |
| CAGCAGCA | -0.0545 |
| AGTCTGCA | -0.279 |
| GATAACGA | 0.175 |
| GACTCGCA | -0.0728 |
| CTCAAACC | -0.103 |

| Sequence | PBM E-score |
| --- | --- |
| AATGGCGG | -0.312 |
| ATGCTGCG | -0.139 |
| CCATCTTA | 0.0188 |
| CACAGTAG | 0.0631 |
| CGAGGGAG | -0.307 |
| ACTAGTTG | -0.193 |
| GTACAGAC | -0.00208 |
| AATCGGTC | 0.00079 |
| CCCTCTGC | -0.346 |
| CCGATACA | 0.0458 |
| CCATAGCA | -0.131 |
| ATAAAACA | 0.144 |
| ACCTCGTA | -0.0151 |
| CGCCACAC | 0.0682 |
| TAGGGGCA | -0.31 |
| CTTTAAAC | 0.0604 |
| CGGATGAA | 0.127 |
| GCTCTTCA | -0.104 |
| CATACTCA | 0.0905 |
| AACCCGGC | -0.1 |
| AGTCGGGA | -0.173 |
| GACTGCGC | -0.131 |
| AGTGATAA | 0.144 |
| AAGATTCG | 0.241 |
| GCTTAAGA | 0.0377 |

| Sequence | PBM E-score |
| --- | --- |
| AAAGCAAG | 0.0733 |
| AGCTAACG | -0.065 |
| CAATGCTA | 0.0158 |
| CGTTTGCA | 0.119 |
| CCGCTCGC | -0.0359 |
| CAAGGAAC | -0.0573 |
| AGGCCAAA | -0.0952 |
| CTGTCGAA | -0.0752 |
| GCAGGACA | -0.051 |
| CCTCGCTA | -0.158 |
| CTGTTACA | -0.038 |
| ATATAAGA | 0.29 |
| ACCCGTTA | -0.086 |
| AAATAAGA | 0.216 |
| AAGCGCTG | 0.0375 |
| CTCAAGGA | -0.117 |
| TCAGCCGA | 0.0692 |
| ACCCATAG | -0.411 |
| AAGACCTC | -0.32 |
| CAGCTAGA | -0.131 |
| AACGTTTG | 0.00207 |
| CATAGAAC | -0.216 |
| AGATAACA | 0.137 |
| GTGCTCTA | -0.0635 |
| CCCGCGAA | -0.136 |

| Sequence | PBM E-score |
| --- | --- |
| ATCGTAAG | 0.0992 |
| AGTAAAAC | 0.023 |
| ACTGCCGC | 0.14 |
| CGTGCATC | -0.118 |
| GAAGATCC | -0.198 |
| CTTCCAAA | 0.0635 |
| CGGAGCTC | -0.359 |
| AACAAATG | 0.176 |
| CCTTTTAC | 0.0801 |
| ACTTAGAT | 0.214 |
| GGACATAC | -0.112 |
| ATGCAGAC | 0.00855 |
| TCAGGCAA | -0.0364 |
| CCCATGAA | -0.00568 |
| AACGCCGT | 0.373 |
| AATCAGCG | 0.172 |
| ACACTGGA | -0.0743 |
| GCTGTATA | -0.0911 |
| AAATTCTC | -0.175 |
| GCATGGGA | -0.206 |
| CGACCTGA | -0.0194 |
| GATCCCAA | -0.0896 |
